# Experimental data published in the supplement of paper PMC8728848.
# The other results are listed elsewhere or left out.
# Columns and labels:
# Test in all cases: glycan array binding signal (z-score within array); higher = stronger binding
# Conditions in all cases: glycan notation: IUPAC condensed, linker removed
# [1] = target: Fuc(a1-2)Gal
# In short: (§1)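 The Consortium for Functional Glycomics database supplied 3228 glycan arrays, of which those lacking an available protein sequence were dropped. The binding signal, a within-array Z-score, was averaged across arrays of the same protein sequence and across linkers. Negative scores can be read as non-binding.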
# [2] = target: Fuc(a1-2)Gal(b1-3)GalNAc
# In short: as §1
# [3] = target: Fuc(a1-2)Gal(b1-3)GalNAc(a1-3)[Fuc(a1-2)]Gal(b1-4)Glc
# In short: as §1
# [4] = target: Fuc(a1-2)Gal(b1-3)GalNAc(a1-3)[Fuc(a1-2)]Gal(b1-4)GlcNAc
# In short: as §1
# [5] = target: Fuc(a1-2)Gal(b1-3)GalNAc(b1-3)Gal
# In short: as §1
# [6] = target: Fuc(a1-2)Gal(b1-3)GalNAc(b1-3)Gal(a1-4)Gal(b1-4)Glc
# In short: as §1
# [7] = target: Fuc(a1-2)Gal(b1-3)GalNAc(b1-4)[Neu5Ac(a2-3)]Gal(b1-4)Glc
# In short: as §1
# [8] = target: Fuc(a1-2)Gal(b1-3)GlcNAc
# In short: as §1
# [9] = target: Fuc(a1-2)Gal(b1-3)GlcNAc(b1-2)Man(a1-3)[Fuc(a1-2)Gal(b1-3)GlcNAc(b1-2)Man(a1-6)]Man(b1-4)GlcNAc(b1-4)GlcNAc
# In short: as §1
# [10] = target: Fuc(a1-2)Gal(b1-3)GlcNAc(b1-2)Man(a1-3)[Fuc(a1-2)Gal(b1-3)GlcNAc(b1-2)Man(a1-6)]Man(b1-4)GlcNAc(b1-4)[Fuc(a1-6)]GlcNAc
# In short: as §1
# [11] = target: Fuc(a1-2)Gal(b1-3)GlcNAc(b1-3)Gal(b1-4)Glc
# In short: as §1
# [12] = target: Fuc(a1-2)Gal(b1-3)GlcNAc(b1-3)GalNAc
# In short: as §1
# [13] = target: Fuc(a1-2)Gal(b1-3)GlcNAc(b1-3)[Fuc(a1-2)Gal(b1-3)GlcNAc(b1-6)]GalNAc
# In short: as §1
# [14] = target: Fuc(a1-2)Gal(b1-3)GlcNAc(b1-3)[Gal(b1-4)GlcNAc(b1-6)]Gal(b1-4)Glc
# In short: as §1
# [15] = target: Fuc(a1-2)Gal(b1-3)GlcNAc(b1-3)[Neu5Ac(a2-6)Gal(b1-4)GlcNAc(b1-6)]Gal(b1-4)Glc
# In short: as §1
# [16] = target: Fuc(a1-2)Gal(b1-3)GlcNAc6S
# In short: as §1
# [17] = target: Fuc(a1-2)Gal(b1-3)[Fuc(a1-4)]GlcNAc
# In short: as §1
# [18] = target: Fuc(a1-2)Gal(b1-3)[Fuc(a1-4)]GlcNAc(b1-2)Man(a1-3)[Fuc(a1-2)Gal(b1-3)[Fuc(a1-4)]GlcNAc(b1-2)Man(a1-3)]Man(b1-4)GlcNAc(b1-4)GlcNAc
# In short: as §1
# [19] = target: Fuc(a1-2)Gal(b1-3)[Fuc(a1-4)]GlcNAc(b1-2)Man(a1-3)[Fuc(a1-2)Gal(b1-3)[Fuc(a1-4)]GlcNAc(b1-2)Man(a1-6)]Man(b1-4)GlcNAc(b1-4)[Fuc(a1-6)]GlcNAc(b1-4)[Fuc(a1-6)]GlcNAc
# In short: as §1
# [20] = target: Fuc(a1-2)Gal(b1-3)[Fuc(a1-4)]GlcNAc(b1-3)[Fuc(a1-3)[Gal(b1-4)]GlcNAc(b1-6)]Gal(b1-4)Glc
# In short: as §1
# [21] = target: Fuc(a1-2)Gal(b1-3)[Fuc(a1-4)]GlcNAc(b1-3)[Gal(b1-4)GlcNAc(b1-6)]Gal(b1-4)Glc
# In short: as §1
# [22] = target: Fuc(a1-2)Gal(b1-4)Fuc(a1-3)]GlcNAc(b1-2)Man(a1-3)[Fuc(a1-2)Gal(b1-4)[Fuc(a1-3)]GlcNAc(b1-2)Man(a1-6)]Man(b1-4)GlcNAc(b1-4)GlcNAc
# In short: as §1
binder,measurement,setting,value
Banana lectin (Musa acuminata) (protein) MNGAIKVGAWGGNGGSAFDMGPAYRIISVKIFSGDVVDAVDVTFTYYGKTETRHFGGSGGTPHEIVLQEGEYLVGMKGEFGNYHGVVVVGKLGFSTNKKSYGPFGNTGGTPFSLPIAAGKISGFFGRGGDFIDAIGVYLEP,glycan array binding signal (z-score),[1],-0.191
same,glycan array binding signal (z-score),[2],-0.192
same,glycan array binding signal (z-score),[3],-0.194
same,glycan array binding signal (z-score),[4],-0.192
same,glycan array binding signal (z-score),[5],-0.192
same,glycan array binding signal (z-score),[6],-0.195
same,glycan array binding signal (z-score),[7],-0.188
same,glycan array binding signal (z-score),[8],-0.193
same,glycan array binding signal (z-score),[9],0.083
same,glycan array binding signal (z-score),[10],-0.118
same,glycan array binding signal (z-score),[11],-0.189
same,glycan array binding signal (z-score),[12],-0.194
same,glycan array binding signal (z-score),[13],-0.174
same,glycan array binding signal (z-score),[14],-0.192
same,glycan array binding signal (z-score),[15],-0.194
same,glycan array binding signal (z-score),[16],-0.188
same,glycan array binding signal (z-score),[17],-0.195
same,glycan array binding signal (z-score),[18],-0.165
same,glycan array binding signal (z-score),[19],0.027
same,glycan array binding signal (z-score),[20],-0.195
same,glycan array binding signal (z-score),[21],-0.105
same,glycan array binding signal (z-score),[22],-0.17
